Measured values taken from PubChem BioAssay AID488969 (Vanderbilt High Throughput Screening Facility, 2010).
Over roughly 110,000 compounds, “z-score” has its median near -0.1; the highest 2% begin near 2. Some of the results follow. Calls of active or inactive are those of the source.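 Rule for the calls: active = z-score in the third read window above 3 or below -3; inactive = the rest.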

The compounds below were run against Metabotropic glutamate receptor 8 (Rattus norvegicus) (UniProt P70579) (assay: mGluR8 Gi/Go-coupled signaling modulation – cell-based, rat, thallium flux, HTS, primary screen (AID 488969)). Conditions: HEK293 rat mGluR8, GIRK (G protein-gated inwardly rectifying potassium channel) thallium flux, FluoZin2; at 10 µM; stronger effect = higher value; submaximal glutamate (EC20) added with thallium.
Chain of UniProt P70579 (P70579 whole entry, looked up): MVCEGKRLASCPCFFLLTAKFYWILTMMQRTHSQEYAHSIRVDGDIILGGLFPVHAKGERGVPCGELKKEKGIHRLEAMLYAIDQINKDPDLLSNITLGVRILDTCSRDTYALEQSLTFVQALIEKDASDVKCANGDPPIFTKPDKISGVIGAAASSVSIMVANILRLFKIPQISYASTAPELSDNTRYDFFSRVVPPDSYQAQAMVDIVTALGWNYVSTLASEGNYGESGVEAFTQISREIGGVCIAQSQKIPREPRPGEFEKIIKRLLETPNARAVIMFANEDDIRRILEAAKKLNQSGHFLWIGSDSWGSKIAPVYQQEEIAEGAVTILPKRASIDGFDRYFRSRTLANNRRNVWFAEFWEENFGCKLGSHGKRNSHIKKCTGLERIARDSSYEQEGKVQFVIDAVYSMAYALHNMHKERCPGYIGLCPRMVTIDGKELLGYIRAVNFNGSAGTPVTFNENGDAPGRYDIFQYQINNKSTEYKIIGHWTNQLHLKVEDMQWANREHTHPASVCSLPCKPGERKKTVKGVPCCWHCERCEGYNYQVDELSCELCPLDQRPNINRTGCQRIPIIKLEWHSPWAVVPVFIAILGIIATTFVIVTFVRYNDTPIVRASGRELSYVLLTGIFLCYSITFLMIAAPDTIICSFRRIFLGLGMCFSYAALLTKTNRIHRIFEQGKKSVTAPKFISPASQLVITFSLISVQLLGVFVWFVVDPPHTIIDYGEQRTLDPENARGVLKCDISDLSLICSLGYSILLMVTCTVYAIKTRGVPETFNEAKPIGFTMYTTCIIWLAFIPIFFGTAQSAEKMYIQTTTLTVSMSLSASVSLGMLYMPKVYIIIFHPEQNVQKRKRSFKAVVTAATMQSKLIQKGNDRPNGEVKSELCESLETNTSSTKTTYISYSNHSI
CN1CCN(C(=O)c2ccccc2-c2nc(-c3ccc(Cl)cc3)no2)CC1 was tested, and the z-score was 0.244. Work on CN(C)c1ccc(-c2nnn(CC(=O)N3c4ccccc4CCc4ccccc43)n2)cc1 yielded a z-score of -0.231. For O=c1ncn(-c2ccccc2F)c2ncccc12, the z-score was 0.251. COC(=O)c1c(NC(=S)Nc2ccc(CC(=O)O)cc2)sc(C)c1C was tested, and the z-score was -0.197. With O=c1c(Cc2ccc(F)cc2)c(O)ccn1Cc1cccc(Cl)c1 the z-score was -0.0328. O=C(NCCN1C(=O)C2C3C=CC(C3)C2C1=O)N1CCCCC1 (stereo unspecified) was tested, and the z-score was -0.0759. COc1cc(C(=O)OC(C)C(=O)NCC2CCCCC2)cc(NC(=O)c2ccco2)c1OC (stereo unspecified) was tested, and the z-score was -0.304. O=S(Cc1cc(Sc2ccccc2)nc(-c2ccccc2)n1)c1ccccc1 (stereo unspecified) was tested, and the z-score was -0.92. Cc1c(C(=O)OC(C)CCN(C)C)oc2ccccc12 (stereo unspecified) showed a z-score of 0.326. Work on COC(=O)c1cnn(-c2nc3c(C)cccc3s2)c1C yielded a z-score of -0.0689. With CCOC(=O)N1CCC(n2c(SCC(=O)Nc3nccs3)nc3ccsc3c2=O)CC1 the z-score was -0.164. Clc1ccc(Cn2ncc3c(N4CCCCC4)ncnc32)c(Cl)c1 was tested, and the z-score was 0.0977. CC(C)NC(=S)NC1(C)CCS(=O)(=O)C1 (stereo unspecified) was tested, and the z-score was 0.19. CC(=O)c1cc2c(cc1N/C(=N/S(=O)(=O)c1ccc(C)cc1)c1ccc(Cl)cc1)OCO2 gave a z-score of -0.128. With O=C(CSC(=S)N1CCOCC1)Nc1nc(=O)c2ccccc2s1 the z-score was 0.0572. CCOc1ccc(OCC)c(NC(=O)CSc2nc3c(c(=O)n(C)c(=O)n3C)n2CC)c1 gave a z-score of -0.252. NC(=O)c1nn(-c2cccc(Cl)c2)c(=O)cc1O was tested, and the z-score was -0.141. Compound CN=C(Nc1ccc(Cl)cc1)c1ccc(C(F)(F)F)cc1 has a z-score of 0.262. Work on COc1ccc(-n2c(SCC(=O)Nc3ccc4c(c3)OCO4)nc3c(c2=O)SCC3)cc1 yielded a z-score of -0.429. With Cc1ccc(OC(=O)c2ccc(C)c(C)c2)cn1 the z-score was 0.22. In the case of CC(=O)c1cc(-c2ccccc2)n(CC(=O)N2CCCCC2)c1C, the z-score is reported as -0.111. In the case of CSc1nc(N)nc(SCC(=O)c2ccccc2)c1C#N, the z-score is reported as 0.434. Work on O=C(Cn1ncc2c(=O)oc3ccccc3c21)NCCC1=CCCCC1 yielded a z-score of -1.17. For CC1CCN(C(=O)CSc2nnc(-c3ccco3)o2)CC1, the z-score was -0.259. O=C1OCc2cc(NC(=O)C34CC5CC(CC(C5)C3)C4)ccc21 gave a z-score of 0.585. Compound O=C(NCCc1ccccc1)c1ccc2nc(-c3ccco3)c(-c3ccco3)nc2c1 has a z-score of -0.154. For Cc1ccc(S(=O)(=O)N2CCCC(C(=O)NCc3ccccn3)C2)cc1 (stereo unspecified), the z-score was -0.274. For Cc1ccc(Nc2nnc(C(C)(C)C)c(=O)n2N)cc1, the z-score was -0.0615. O=C(Nc1ccc(Br)c(Cl)c1)C1CC1 was tested, and the z-score was 0.469. c1ccc(-c2nnc3sc(CN4CCc5ccccc54)cn23)cc1 was tested, and the z-score was -1.18. Cc1ccc(S(=O)(=O)NN2C(=O)/C(=C/c3cccn3C)SC2=S)cc1 was tested, and the z-score was -0.623. O=C(CSc1nccc(=O)[nH]1)Nc1ccc(F)c([N+](=O)[O-])c1 gave a z-score of -0.125. For CC(C)(C)c1cc(C(=S)N2CCN(CCO)CC2)cc(C(C)(C)C)c1O, the z-score was 1.54. Work on O=C(CSCc1cccc(CSCC(=O)Nc2ccccc2)n1)Nc1ccccc1 yielded a z-score of -0.274. With COc1cc2c(cc1NC(=O)CSc1nccn1C)oc1ccccc12 the z-score was -0.679. Work on Cc1ccccc1NC1=C(Cl)C(=O)OC1NC(=O)c1ccccc1 (stereo unspecified) yielded a z-score of -0.315. CCOc1ccc(N(C(=O)Cn2nnc3ccccc32)C(C(=O)NC(C)(C)CC)c2cccn2C)cc1 (stereo unspecified) showed a z-score of -0.0556. CCCCC(=O)Nc1ccc2c(c1)oc1ccccc12 gave a z-score of -0.0389. Work on CC(NC(=O)OCc1ccccc1)C(=O)OCN1C(=O)c2ccccc2C1=O (stereo unspecified) yielded a z-score of -1.16. Work on CCCOC(=O)C1C2C=C[C@]3(CN(CCc4ccccc4)C(=O)[C@H]13)O2 (stereo partly specified) yielded a z-score of -0.0436. Compound Cc1nn(Cc2ccc([N+](=O)[O-])cc2)c(=O)n1-c1c(F)cccc1F has a z-score of 0.0221. Compound CCCCNC(=O)C1CCCN1C(=O)NC1CCCCC1 (stereo unspecified) has a z-score of 0.126. Compound Cc1cc(C)c(NC(=O)CSc2nnc(SCC(=O)Nc3c(C)cc(C)cc3C)n2N)c(C)c1 has a z-score of 1.72. S=C1NC(c2ccccc2)=NCN1c1ccccc1 gave a z-score of 0.145. For COc1ccccc1NC(=O)c1ccc(Br)o1, the z-score was 0.433. OCCCCNc1cccc2ccccc12 showed a z-score of 1.32. CCN(Cc1ccccc1)C(c1ccc(C(F)(F)F)cc1)c1nnnn1C(C)(C)C (stereo unspecified) was tested, and the z-score was 0.374. Compound CCCCC1CC(C)(C(=O)CSc2nc3ccccc3s2)OC1=O (stereo unspecified) has a z-score of -0.399. O=S(Cc1ccc(Cl)cc1)CC(O)(c1ccccc1)c1ccccc1 (stereo unspecified) gave a z-score of -0.677. Compound O=C(COc1ccc(Cl)cc1)Nc1nnc(-c2ccc3c(c2)CCCC3)o1 has a z-score of -0.441. COc1ccc(-c2nc(C)ncc2N=Nc2ccccc2)cc1 gave a z-score of -0.33. O=C1CC(N2CCN(c3nc4ccccc4s3)CC2)C(=O)N1Cc1cccs1 (stereo unspecified) was tested, and the z-score was 1.02. In the case of CCCCn1nc(C(=O)O)ccc1=O, the z-score is reported as -0.165. COc1ccccc1-c1cc(C(F)(F)F)nc(S(=O)(=O)CCCC(=O)O)n1 showed a z-score of -0.104. O=c1cc(N2CCN(c3ccc(F)cc3)CC2)[nH]c(=O)n1C1CCCCC1 gave a z-score of -0.16. In the case of COc1ccc(OCC(=O)NC(=S)Nc2ccc(S(=O)(=O)Nc3cc(OC)nc(OC)n3)cc2)cc1, the z-score is reported as -0.254. Work on Cc1sc(NC(=O)c2ccco2)c(C(c2cccnc2)N2CCN(C)CC2)c1C (stereo unspecified) yielded a z-score of -0.0535. CCC(C)[C@H](NC(=O)OC(C)(C)C)c1nnc(SCc2c(C)[nH]c(=O)[nH]c2=O)o1 (stereo partly specified) showed a z-score of -0.262. In the case of Cc1ccc(NC(=S)NCc2ccccc2)cc1[N+](=O)[O-], the z-score is reported as active: 3.51. CCC(c1nnnn1Cc1ccco1)N1CCN(C(=O)c2ccco2)CC1 (stereo unspecified) gave a z-score of -0.202. CCOC(=O)CC1C(=O)NCCN1Cc1cccc(C(F)(F)F)c1 (stereo unspecified) was tested, and the z-score was -0.291. Work on O=S(=O)(NCC1CCCO1)c1cccc(S(=O)(=O)N2CCCC2)c1 (stereo unspecified) yielded a z-score of 0.385. CC(Oc1ccc(F)cc1)C(=O)NN (stereo unspecified) was tested, and the z-score was -0.308. CCn1c(SCC(=O)Nc2ccccc2N2CCOCC2)nnc1-c1ccccc1O showed a z-score of -0.701. CCS(=O)(=O)c1nc2ccccc2n1Cc1ccccc1Cl gave a z-score of -0.725. Work on CCOc1ccccc1CN1C(=O)NC(C)(c2ccccc2)C1=O (stereo unspecified) yielded a z-score of -1.62. Compound O=C(Nc1ccccc1)Nc1nncs1 has a z-score of 0.101. C=CCNc1nc(-c2cc3ccccc3o2)cs1 gave a z-score of -0.118. For CC(C)N(C(=O)Cn1c(SCC(=O)Nc2nccs2)nc2ccccc21)C(C)C, the z-score was 0.8. Compound COC(=O)c1ccc(N2CCN(S(=O)(=O)c3c(C)cc(C)cc3C)CC2)c([N+](=O)[O-])c1 has a z-score of 0.129. With COc1ccccc1C1SCCN1C(=O)c1ccc([N+](=O)[O-])cc1 (stereo unspecified) the z-score was -0.101. Cc1ccc(CN2C(=O)c3ccccc3C2C(=O)NCc2cccnc2)cc1 (stereo unspecified) showed a z-score of 1.24. For Cc1cc(C)n(S(=O)(=O)c2cc(C)c(C)cc2C)n1, the z-score was -0.084. With CC1(CCc2ccc(O)cc2)NC(=O)NC1=O (stereo unspecified) the z-score was 0.0371. CC1CCCCC1NC(=O)C(Cc1ccccc1)NS(=O)(=O)c1cccs1 (stereo unspecified) showed a z-score of 0.146. Cc1c(Cl)cccc1NC(=O)CCC(=O)NNC(=O)c1ccco1 showed a z-score of -0.104. Work on O=C(CSc1nnc(-c2ccccc2O)o1)N1CCc2ccccc2C1 yielded a z-score of -0.614. O=C(Nc1ccccc1)c1nn(-c2ccccc2)c(=O)cc1C(F)(F)F gave a z-score of -0.145. Compound COC(=O)C(N)Cc1ccc(O)c(O)c1 (stereo unspecified) has a z-score of -0.0766. Work on COc1ccc(S(=O)(=O)N(C(=O)c2ccncc2)c2ccc3oc4c(c3c2)CCCC4)cc1 yielded a z-score of -0.218. CSc1nc(-c2ccccc2)cc(C(F)(F)F)c1C#N showed a z-score of -0.119. With COc1ccc(Nc2nc(N)nc(COc3ccc(OC)cc3)n2)cc1 the z-score was -0.113. With Cn1c(SCc2nn[nH]n2)nc2c1c(=O)n(Cc1ccccc1Cl)c(=O)n2C the z-score was -0.14. Fc1ccc(-c2nnc3ccc(N4CCc5ccccc5C4)nn23)cc1 gave a z-score of 2.89. CC(=O)c1ccc(NC(=O)CC(NCCC2=CCCCC2)C(=O)O)cc1 (stereo unspecified) gave a z-score of 0.55. Compound Cc1nc(SC2CC(=O)N(c3ccccc3)C2=O)nc2c1CCCC2 (stereo unspecified) has a z-score of -1.76. Compound O=C(O)c1nn(-c2ccccc2)c(-c2ccccc2)c1C(=O)c1ccccc1 has a z-score of -0.241. For CCC1S/C(=N/N=C/c2ccco2)NC1=O (stereo unspecified), the z-score was -0.425. CCn1c(CCNC(=O)c2cccs2)nnc1SCC(=O)Nc1ccc(Cl)cc1 was tested, and the z-score was -0.883. Cc1ccc2oc(-c3ccccc3)c(C(=O)O)c(=O)c2c1 was tested, and the z-score was 0.496. COc1ccc(NC(=O)CC2C(=O)N(C)C(=S)N2Cc2ccco2)cc1 (stereo unspecified) was tested, and the z-score was 0.0416. With CCCCCC[n+]1c(-c2ccc(Cl)cc2Cl)csc1Nc1ccccc1 the z-score was -0.156. For c1ccc(COc2ccc(CNn3cnnc3)cc2)cc1, the z-score was 0.241. COc1cc(-c2nnc(COc3ccc(Cl)cc3C)o2)cc(OC)c1OC was tested, and the z-score was 0.0119. C=CCn1c(=O)c2ccccc2n2c(SCC(=O)/C(C#N)=C(\C)N)nnc12 showed a z-score of -1.28. Compound CCCCNC(=O)c1ccc(N2CCC3(CC2)OCCO3)c([N+](=O)[O-])c1 has a z-score of -0.757. Compound Oc1ccc(-c2nc3ncccn3c2Nc2ccc3c(c2)OCCO3)cc1 has a z-score of -0.591. Cc1cc(C)c(C(=O)/C=C/c2ccc(C(C)C)cc2)c(=O)[nH]1 gave a z-score of -1.19. With COc1ccccc1N1CCN(Cc2cc(=O)n3ccsc3n2)CC1 the z-score was -0.118. In the case of N#C/C(C(=O)NCc1ccccc1)=C1\SC(CCO)C(=O)N1c1ccccc1 (stereo unspecified), the z-score is reported as -0.123. Compound Cn1c(=O)c2c(nc(NCc3ccc4c(c3)OCO4)n2C)n(C)c1=O has a z-score of 0.176. CSc1ccc(S(=O)(=O)NCc2ccc(Cl)cc2)cc1 was tested, and the z-score was -0.339. N#Cc1cc(-c2ccccc2)cn(Cc2c(Cl)cccc2Cl)c1=O showed a z-score of -0.0549. Compound COC(=O)c1cn[nH]c1NC(=S)Nc1ccccc1C has a z-score of -0.126. Compound CC(=O)c1sc(NC(=O)c2ccc(C)cc2)nc1C has a z-score of -0.377. Compound COC(=O)c1ccc(C(=O)NC(=S)Nc2nc3c(s2)CC(C)CC3)cc1 (stereo unspecified) has a z-score of 0.17. Compound CN1/C(=C\C(=O)CSc2nnc(N)s2)C(C)(C)c2ccccc21 has a z-score of -0.275. In the case of CC1(C)CC(=O)C=C(Nc2ccccc2NC(=O)c2cnccn2)C1, the z-score is reported as -0.231. With O=C(Cc1csc(-c2ccccc2)n1)NCc1ccc(F)cc1 the z-score was -0.252. For CCCS(=O)(=O)N1CCCC(C(=O)NCCCN(Cc2ccccc2)C(C)C)C1 (stereo unspecified), the z-score was 0.0261. In the case of CC1(C)Cc2c(c(N3CCOCC3)nc3sc4c(=O)[nH]cnc4c23)CS1, the z-score is reported as -1.17.
